# Assay results from PubChem BioAssay AID1345083 (National Center for Advancing Translational Sciences (NCATS), 2018).
# The whole screen tested about 94,000 compounds, of which about 6,200 (6.6%) were called active. Inconclusive means that the source gave no clear call. Such entries were picked first, then a sample of the others. The call rests on the fitted dose curve; in most records, active means well fitted inhibition curve with a large enough effect; inconclusive means small, poorly fitted or top-dose-only effect; inactive means flat fitted curve, though single readings scatter. Where the call is inconclusive, the potency comes from a doubtful curve fit.
# Assay: Cytotoxic Profiling in HEK 293 Cell Line of Diverse Libraries Using Quantitative High-Throughput Screening; further: nearly all actives have a fitted effect of over 60% in size
# Details: HEK 293 viability, ATP luminescence (CellTiter-Glo), 48-72 h; series mostly up to 115 µM
# Outline: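 Pintool-delivered compounds were incubated with HEK 293 cells (250 cells/well) at 37 degree Celsius for 48 or 72 hr. ATP-dependent luminescence (CellTiter-Glo) then reported remaining viable cells.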
# Potency means the concentration at half of the fitted maximal effect; tags describe the fitted curve by direction and shape.
row,Structure (SMILES),Potency
1,COc1ccccc1-c1ccc(CN2CCC(N[S+](=O)([O-])c3c(C)noc3C)C2)cc1 (stereo not given),active: 44.7 µM
2,CCc1nc(C)sc1C(=O)N1CCCC(c2[nH]ncc2-c2ccccc2)C1 (stereo not given),"inconclusive: 79.4 µM [inhibitor, partial curve, poor fit]"
3,CCCNC(=O)C1COC2(CCN(C(=O)c3ccc(F)cc3)CC2)N1C(=O)c1ccc(F)cc1 (stereo not given),inactive
4,CCn1cc(C(=O)N2CCCC(C(=O)Nc3cccc(-c4cc5ccccc5[nH]4)c3)C2)cn1 (stereo not given),active: 39.8 µM
5,O=C(c1cc(C2CC2)[nH]n1)N1CCc2c(nc(-c3ccccn3)[nH]c2=O)C1,"inconclusive: 50.1 µM [inhibitor, partial curve, poor fit]"
6,O=C(Nc1cc(F)ccc1F)C1CN(S(=O)(=O)c2cccnc2)CC12CCCCC2 (stereo not given),"inconclusive: 79.4 µM [inhibitor, single point]"
7,COc1cccc(NC(=O)[C@@H]2C[C@H](c3cccc(C(F)(F)F)c3)N(Cc3cnn(C)c3)C2)c1,"inconclusive: 79.4 µM [inhibitor, partial curve, poor fit]"
8,Cc1ccc(C(=O)N2CCC(Oc3ccc(NC(=O)c4ccccc4)cn3)C2)cc1 (stereo not given),"inconclusive: 17.8 µM [inhibitor, partial curve, poor fit]"
9,Cc1ccc(-c2nnc(C3CN(C(=O)Cc4ccccc4C)CC34CCOCC4)o2)cc1 (stereo not given),"inconclusive: 50.1 µM [inhibitor, partial curve, poor fit]"
10,CNC(=O)[C@@H]1C[C@H](Oc2ccccc2)CN1C(=O)c1cc(C)n(C)n1,"inconclusive: 89.1 µM [inhibitor, single point]"
11,CCC1=C(C(=O)OC)C(c2ccccc2C)N2C(CC(=O)N3CCCC3)=CSC2=N1 (stereo not given),"inconclusive: 56.2 µM [inhibitor, partial curve, poor fit]"
12,CN1CC2(CCN(Cc3ccccc3C#N)CC2)CC1C(=O)N1CCOCC1 (stereo not given),inactive
13,COc1ccc(CC(=O)NC2CCN(c3cc(-c4ccccc4)[nH]n3)CC2)cc1,"inconclusive: 39.8 µM [inhibitor, partial curve, poor fit]"
14,O=C1Nc2ccc(-c3ccccc3F)cc2C(=O)N2CCN(C(=O)c3cccnc3)C[C@H]12,"inconclusive: 112 µM [inhibitor, single point]"
15,CCNC(=O)N(C1CC1)C1CCOC2(CCN(C(=O)Cc3ccsc3)CC2)C1 (stereo not given),inactive
16,COc1ccccc1-c1cnc(Nc2cccnc2OC)c2c1CCO2,active: 28.2 µM
17,CCc1c(C)cc(C(=O)N[C@@H]2[C@@H](Cc3ccccc3)[C@H]3OCC[C@@H]23)c(=O)n1C,"inconclusive: 44.7 µM [inhibitor, partial curve, poor fit]"
18,Cc1noc2c(-c3cccnc3NCc3cnccn3)cc(-c3ccccc3)nc12,"inconclusive: 112 µM [inhibitor, partial curve, poor fit]"
19,COc1ccc(C(=O)N2CCC(N3CCCNC3=O)CC2)cc1,"inconclusive: 126 µM [inhibitor, single point]"
20,O=C(NCc1ccc(Cl)cc1)c1ccc2nc(-c3ccncc3)oc2c1,"inconclusive: 56.2 µM [inhibitor, full curve, poor fit]"
21,Cc1nn(-c2ccccc2)c2c1C(C(C)C)N(C1CCN(C(=O)c3ccc(F)cc3)C1)C2=O (stereo not given),active: 44.7 µM
22,CCCN(CC1CCOC1)C(=O)Nc1ccc(C)c(Cl)c1 (stereo not given),inactive

row,Structure (SMILES),Potency
1,CC(=O)N1CCCC2(C1)CN(C)c1ccc(C(=O)NCCOc3ccccc3)cc12 (stereo not given),"inconclusive: 126 µM [inhibitor, single point]"
2,CCOc1ccccc1OCCN(C)C(=O)c1cccnc1SC,"inconclusive: 89.1 µM [inhibitor, single point]"
3,CO[C@H]1C(=O)N(C2CCN(C(=O)Cc3cccc(F)c3)CC2)[C@H]1c1ccncc1,inactive
4,Cc1nn(-c2ccccc2)c2c1C(C1CC1)N(C1CCN(C(=O)c3ccccc3)C1)C2=O (stereo not given),"inconclusive: 44.7 µM [inhibitor, partial curve, poor fit]"
5,O=C(NCCCc1ccccc1)c1n[nH]c2c1CN(C(=O)c1ccc3c(c1)OCO3)CC2,"inconclusive: 50.1 µM [inhibitor, partial curve, poor fit]"
6,O=C(O)CCn1ncc2cc(OCC3CCN(C(=O)CCC(F)(F)F)CC3)ccc21,inactive
7,COc1ccc(C(=O)N2C[C@@H](F)[C@@H](OCc3nc4ccc(F)cc4[nH]3)C2)cc1,"inconclusive: 79.4 µM [inhibitor, partial curve]"
8,O=S(=O)(NCC1CCOCC1)c1ccc(F)c(F)c1,inactive
9,Cc1ccc2nc3n(c2c1)[C@@H](CNCc1ccccc1)COC3,"inconclusive: 63.1 µM [inhibitor, full curve, poor fit]"
10,Cn1cc(CN2C[C@@H](F)[C@@H](OCc3nc4ccc(F)cc4[nH]3)C2)cn1,inactive
11,CCNC(=O)N1CC2=CC(C)(C)COc3ccc(OC)c(c32)C1C(=O)OCC (stereo not given),"inconclusive: 89.1 µM [inhibitor, single point]"
12,O=C(CN1C(=O)NC(c2ccc(Cl)cc2)C2=C1COC2=O)NCCc1ccc(Cl)cc1 (stereo not given),active: 44.7 µM
13,OCCC1CN(Cc2nc3ccccc3s2)CCN1Cc1ccc(F)c(F)c1 (stereo not given),active: 79.4 µM
14,CSCC(=O)N[C@H]1CCN2C(=O)c3cc(-c4ccccc4F)ccc3NC(=O)[C@H]12,"inconclusive: 31.6 µM [inhibitor, partial curve, poor fit]"
15,COc1ccc([C@H]2C[C@@H](O)[C@@H](O)[C@@H]2NC(=O)c2ccc(C(F)(F)F)cc2)cc1,"inconclusive: 126 µM [inhibitor, single point]"
16,CC(=O)c1cccc(NC(=O)O[C@@H]2CO[C@H]3[C@@H]2OC[C@@H]3NC(=S)Nc2cccc3ccccc23)c1,"inconclusive: 39.8 µM [inhibitor, partial curve, poor fit]"
17,c1ccc(-c2cnc3n[nH]c(-c4ccccc4)c3n2)cc1,active: 100 µM
18,CC1CCCN(C(=O)Cc2cccn2-c2ccc(F)cc2)C1 (stereo not given),"inconclusive: 89.1 µM [inhibitor, single point]"
19,CC(=O)N1CCN(C(=O)c2ccc3nnc(Cc4ccc(Cl)cc4)n3c2)CC1,inactive
20,O=[S+]([O-])(c1ccc(Cl)cc1)c1nnn2c1nc(NC1CCCC1)c1ccccc12,"inconclusive: 50.1 µM [inhibitor, partial curve, poor fit]"
21,Cc1cc(CNC(=O)c2ccncc2)c2[nH]c(-c3ccccc3)c(C)c2c1,active: 14.1 µM
22,CCNC(=O)c1cccc2c1CCN2C(=O)Nc1ccc(C)cc1,"inconclusive: 35.5 µM [inhibitor, partial curve, poor fit]"

row,Structure (SMILES),Potency
1,Cc1nnc2ccc(N3CCN(C(=O)Cc4ccccc4Cl)CC3)nn12,inactive
2,Cc1ccccc1-c1nc(N2CCOCC2)cc2c1CN(c1ccccc1)C2=O,"inconclusive: 50.1 µM [inhibitor, full curve]"
3,COc1ccc(F)cc1-c1ccc(CN2CCCCC2C(=O)N2CCOCC2)cc1 (stereo not given),"inconclusive: 50.1 µM [inhibitor, partial curve, poor fit]"
4,CCCNC(=O)N1CCn2nc(C(O)c3ccccc3)cc2C1 (stereo not given),inactive
5,O=C(COc1ccccc1)NC1CCCc2c1[nH]c1c(Cl)cccc21 (stereo not given),active: 44.7 µM
6,Cc1ccc([S+](=O)([O-])N2CCCC(C(=O)N3CCC(c4nc5ccncc5[nH]4)C3)C2)cc1 (stereo not given),inactive
7,CS(=O)(=O)N1CCOc2ccc(CCC(=O)NC3CCCc4ccccc43)cc2C1 (stereo not given),"inconclusive: 56.2 µM [inhibitor, partial curve, poor fit]"
8,CCOc1ccccc1NC(=O)[C@H]1CCC[C@H]1NC(=O)c1ccc(OC)cc1,"inconclusive: 50.1 µM [inhibitor, partial curve, poor fit]"
9,COc1ccc(-c2noc([C@@H]3CCCN3C(=O)c3cc(C)cc(C)c3)n2)cc1,"inconclusive: 39.8 µM [inhibitor, full curve, poor fit]"
10,CCS(=O)(=O)Nc1ccc(C2(C(=O)NCc3cc(F)cc(F)c3)CCCCC2)cc1,"inconclusive: 89.1 µM [inhibitor, single point]"
11,CCC1(N2CCN(S(=O)(=O)c3ccc4c(c3)CCCC4)CC2)CCN(C(=O)C(C)C)C1 (stereo not given),"inconclusive: 35.5 µM [inhibitor, partial curve, poor fit]"
12,O=C(Cn1ncc2ccccc2c1=O)NC1CCCc2c1[nH]c1ccccc21 (stereo not given),inactive
13,Cc1ccc(-c2noc([C@@H]3C[C@@H](O)CN3Cc3ccc(C(=O)O)cc3)n2)cc1F,inactive
14,CNC(=O)[C@@H]1CN(C(=O)Cc2c(C)noc2C)C[C@H]1COC,inactive
15,NCC(=O)N1Cc2ccccc2CC2(CCN(CC3CCOCC3)C2)C1 (stereo not given),inactive
16,Clc1cccc(CN2CC[C@H](c3nc4ccccc4s3)C2)c1,active: 100 µM
17,CCCCCNC(=O)c1noc(-c2ccccc2F)n1,"inconclusive: 89.1 µM [inhibitor, single point]"
18,CC1=C[C@@H](CN2CCN(CCO)CC2)[C@H](C(C)C)C[C@H]1Cc1nnc(-c2ccc(C)cc2)o1,active: 31.6 µM
19,Cc1noc(C)c1Cc1ccc(C(=O)N2CC(N(Cc3cccnc3)CC(C)C)C2)o1,"inconclusive: 79.4 µM [inhibitor, partial curve, poor fit]"
20,Cc1ccc(-c2noc(-c3nc(-c4ccccn4)no3)n2)cc1,inactive
21,O=C(NCc1ccc(OC(F)(F)F)cc1)N1CCC2(CC1)CN(c1ccccc1)C2=O,"inconclusive: 56.2 µM [inhibitor, partial curve, poor fit]"
